This note sets out measurements from article PMC4336329 (PLoS ONE, 2015).

Structures are written as SMILES. Out of some 310,000 compounds screened, about 14,000 (4.5%) showed an effect of 50% or more. Effects have a minus sign here. The list shows a part of the results.
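Also: peak tail current of the secondary pulse compared with the same well before compound.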

For this assay, the target named is human ether-à-go-go-related gene (hERG) potassium channel (human, UniProt Q12809). The assay is described as follows: primary screen, population patch clamp on CHO cells stably expressing hERG.
human ether-à-go-go-related gene (hERG) potassium channel, sequence (Q12809 whole entry, looked up): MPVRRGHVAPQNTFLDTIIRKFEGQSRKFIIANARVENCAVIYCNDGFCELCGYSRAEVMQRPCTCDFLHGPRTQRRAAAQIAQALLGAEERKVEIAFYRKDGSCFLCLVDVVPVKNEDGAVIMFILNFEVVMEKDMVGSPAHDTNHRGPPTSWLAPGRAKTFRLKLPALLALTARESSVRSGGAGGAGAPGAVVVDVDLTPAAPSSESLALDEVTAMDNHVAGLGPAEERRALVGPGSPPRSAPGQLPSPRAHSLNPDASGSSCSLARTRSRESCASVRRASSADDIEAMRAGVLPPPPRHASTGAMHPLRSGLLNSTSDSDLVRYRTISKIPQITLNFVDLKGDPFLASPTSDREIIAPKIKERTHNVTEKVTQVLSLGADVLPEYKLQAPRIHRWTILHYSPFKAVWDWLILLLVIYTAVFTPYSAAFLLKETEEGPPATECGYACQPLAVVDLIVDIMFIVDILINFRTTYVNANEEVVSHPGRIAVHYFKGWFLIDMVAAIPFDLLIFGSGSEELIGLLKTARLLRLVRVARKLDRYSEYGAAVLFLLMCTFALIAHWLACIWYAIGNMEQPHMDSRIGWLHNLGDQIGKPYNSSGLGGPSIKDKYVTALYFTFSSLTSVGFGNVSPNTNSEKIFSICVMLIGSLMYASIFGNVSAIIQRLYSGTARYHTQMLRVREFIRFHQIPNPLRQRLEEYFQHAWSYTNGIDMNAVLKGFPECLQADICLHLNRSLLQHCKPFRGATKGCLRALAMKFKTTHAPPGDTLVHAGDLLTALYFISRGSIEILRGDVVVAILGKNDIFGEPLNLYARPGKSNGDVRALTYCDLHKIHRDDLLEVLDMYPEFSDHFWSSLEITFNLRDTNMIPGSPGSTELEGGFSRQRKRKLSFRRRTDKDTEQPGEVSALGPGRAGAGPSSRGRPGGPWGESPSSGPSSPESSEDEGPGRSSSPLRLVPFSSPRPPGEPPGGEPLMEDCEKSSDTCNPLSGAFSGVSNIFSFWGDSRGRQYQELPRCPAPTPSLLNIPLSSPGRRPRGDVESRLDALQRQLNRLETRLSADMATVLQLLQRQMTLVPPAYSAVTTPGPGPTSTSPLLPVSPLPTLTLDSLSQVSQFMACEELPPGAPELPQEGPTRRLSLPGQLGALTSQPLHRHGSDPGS
In the case of `CCC(O)(c1ccc(OC)cc1)C(CN1CCOCC1)c1ccccc1.Cl` (stereo not shown), the “hERG current change (%, negative = inhibition) at 10uM” value was -20.7%.
Then `CCNC(=S)N(Cc1ccc(OC)cc1)C1CC(=O)N(c2ccc(OCC)cc2)C1=O` (stereo not shown), with 4.68%; and `O=C(COC(=O)c1cc(S(=O)(=O)N2CCOCC2)ccc1F)NC1CCCCC1`, with -2.25%.
As for `O=C(CNC(=O)c1ccco1)NCC(=O)OCc1c(F)cccc1Cl`, the “hERG current change (%, negative = inhibition) at 10uM” value is reported as 4.47%.
The value for `CCS(=O)(=O)N1CCC(C(=O)Oc2ccccc2)CC1` was 2.27%.
Then `COc1cccc(C(=O)N2CCN(Cc3ccc4c(c3)OCO4)CC2)c1OC`, with -5.04%.
Turning to `CN(CC(O)CN1CCOCC1)S(=O)(=O)[O-].[Na+]` (stereo not shown), the “hERG current change (%, negative = inhibition) at 10uM” value was determined as 25.3%.
The value for `CC1S/C(=C(\C#N)C(=O)NCc2ccco2)N(Cc2ccco2)C1=O` (stereo not shown) was 7.2%; that for `COc1ccc(C2=NN(S(C)(=O)=O)C(c3cccs3)C2)cc1OC` (stereo not shown) was 12.6%; that for `CC1CN(CC(O)COC(c2ccc(Cl)cc2)c2ccc(Cl)cc2)CC(C)O1.Cl` (stereo not shown) was -71.9%.
Then `Cl.O=C(CSc1ncn[nH]1)Nc1ccc([N+](=O)[O-])cc1Br`, with 9.19%; and `N#CC12CCCCC1CC1CCCCC1(C#N)N2Cc1ccccn1` (stereo not shown), with 4.58%; and `O=C(NC1CCCC1)C(c1cccnc1)N(C(=O)c1csnn1)C1CCCC1` (stereo not shown), with 13%.
The value for `C=C(C)c1cccc(C(C)(C)NC(=O)NCCCN2CCCC2=O)c1` was 15.6%; that for `CCOC(=O)c1cc2c(=O)n3cccc(C)c3nc2n(CCOC)c1=NC(C)=O` was -16.3%; that for `CC[n+]1c(/C=C(/C)SC)sc2ccccc21.COS(=O)(=O)[O-]` was 5.99%.
Turning to `O=[N+]([O-])c1cccnc1N1CCOCC1`, the “hERG current change (%, negative = inhibition) at 10uM” value came to 14.3%.
Then `Cc1ccccc1C(=O)NNC(=O)C1CCN(C(=O)Nc2ccccc2)CC1`, with 24.6%; and `Cc1ccccc1Nc1c(-c2ccncc2)nc2ccc(Br)cn12`, with -31%.
In the case of `CC(=O)Nc1cc(C(F)(F)F)ccc1OCC1CCCO1` (stereo not shown), the “hERG current change (%, negative = inhibition) at 10uM” value is on record as -11.7%.
With `COC(=O)Cc1n[nH]c(=O)c2ccccc12`, the “hERG current change (%, negative = inhibition) at 10uM” value is 7.54%.
The value for `COC(=O)c1ccc(NC(=O)CSCC(=O)OCC(=O)c2ccc(Br)cc2)cc1` was 7.85%.
The value for `CCSc1nnc(NC(=O)COc2cccc3ccccc23)s1` was 19.6%; that for `Cc1ccc(OCc2nnc(SCC(=O)Nc3ccc4c(c3)OCCO4)n2Cc2ccco2)cc1` was 6.31%.
Then `Cc1cc(=O)oc2c3c(cc(OCC(=O)NCC4CCC(C(=O)O)CC4)c12)OC(C)(C)CC3` (stereo not shown), with -7.94%.
For the molecule `Cc1cc(C)c(C)c(S(=O)(=O)N2CCN(C(=O)c3ccccn3)CC2)c1C`, the “hERG current change (%, negative = inhibition) at 10uM” value was -26.3%.
Then `Cc1cc(C)c(C#N)c(SCc2ccc(F)cc2)n1`, with 16%; and `COc1ccccc1C(=O)Oc1cc(C)[nH]c(=O)c1[N+](=O)[O-]`, with 2.32%.
As for `COc1ccc(CCC(=O)NCCc2cnc[nH]2)cc1`, the “hERG current change (%, negative = inhibition) at 10uM” value was 12.5%.
The value for `CCOC(=O)N1CCN(CCC(=O)Nc2cc(C)ccc2OC)CC1.Cl` was 1.07%; that for `CCc1nc(C)c(C#N)c2cc(OC)c(OC)cc12` was 1.21%; that for `CC1CCCN(C(=O)CSc2nnc(-c3cccnc3)n2C2CCCCC2)C1` (stereo not shown) was -13.4%.
The value for `CN(Cc1cc2ccccc2[nH]c1=O)S(C)(=O)=O` was -6.06%.
The value for `CCCn1c(C)cc(/C=C(\C#N)C(=O)OCC(=O)NC(=O)NCC)c1C` was -3.94%; that for `CC1(C)CC(=O)C=C(Nc2cccc(C(F)(F)F)c2)C1` was -3.01%; that for `O=C(CN1C(=O)NC2(CCCC2)C1=O)N1CCN(S(=O)(=O)c2cccc(C(F)(F)F)c2)CC1` was -5.43%.
Take `C[C@@H](C(=O)Nc1ccc2ccccc2c1)[C@@H]1C[C@@]1(C)[C@@H](NC(=O)OCc1ccccc1)c1ccccc1`: the “hERG current change (%, negative = inhibition) at 10uM” value turned out to be 11.5%.
The value for `COc1ccc(C(=O)Nc2n[nH]c(-c3ccncc3)n2)cc1` was 2.24%; that for `COc1ccccc1N1CCN(C(=O)c2cccc(S(=O)(=O)NCc3cccnc3)c2)CC1` was -6.86%; that for `COc1cc(OC)cc(-c2c(-c3cccs3)c3cc(-c4ccc5[nH]ccc5c4)ccc3n2C)c1` was 11.8%.
With `COc1ccc(CCNC(=O)COC(=O)CNS(=O)(=O)c2ccc(SC)c([N+](=O)[O-])c2)cc1`, the “hERG current change (%, negative = inhibition) at 10uM” value is 8.61%.
The value for `COc1cc(/C=N/NC(=O)c2cc(-c3ccccc3Cl)nc3ccccc23)cc(OC)c1O` was -12.3%; that for `COc1ccccc1-c1ccc(=O)n(CC(=O)NC2CCc3ccccc32)n1` (stereo not shown) was 5.88%.
Turning to `Br.NC1CCc2cc(O)c(O)cc2C1` (stereo not shown), the “hERG current change (%, negative = inhibition) at 10uM” value came out at 11.2%.
The value for `N#Cc1ccc(N2Cc3ccccc3C2=NC(=O)c2cccs2)cc1` was -36.1%; that for `CCOC(=O)C1=C(C)N=c2s/c(=C/c3ccc(OCC(=O)O)cc3)c(=O)n2C1c1cc(OC)c(OC)c(OC)c1` (stereo not shown) was -4.27%; that for `CC(=O)N1CCN(S(=O)(=O)c2ccc(C)cc2)C1C(C)C` (stereo not shown) was 1.23%.
Then `CCNc1nc(NC(C)C)nc(N(C#N)CCOc2ccc(Cl)cc2Cl)n1`, with -1.33%.
The value for `CCCC/S(CC1CC1(Cl)Cl)=N\S(=O)(=O)c1ccc(C)cc1` (stereo not shown) was -8.74%; that for `Nc1nc(Nc2ccccc2F)sc1C(=O)c1ccccc1` was 2.71%; that for `COC(=O)c1c(C)n(-c2ccc(OC)cc2)c2ccc(O)cc12` was 11.1%.
Take `Cc1cc(-n2nc(C)cc2C)nc(NS(=O)(=O)c2ccccc2)n1`: the “hERG current change (%, negative = inhibition) at 10uM” value was 17.6%.
The value for `Cc1cc(C(=O)N/N=C/c2ccc(-c3cccc(Cl)c3Cl)o2)n[nH]1` was 12.4%.
Then `CCOc1ccc(CN(C)C(=O)CNC(=O)Cc2cccc3ccccc23)cc1`, with 10.2%.
For `Cc1ccc(COc2coc(CN3CCN(C(=O)c4ccco4)CC3)cc2=O)cc1`, the “hERG current change (%, negative = inhibition) at 10uM” value is listed as -48.4%.
Consider `COc1ccc(CCn2c(O)c(/C=N/N3CCOCC3)c(=O)[nH]c2=O)cc1OC`, for which the “hERG current change (%, negative = inhibition) at 10uM” value was found to be 7.53%.
Then `CC(C)c1ccc(/C=C2\SC(N3CCCC3)=NC2=O)cc1`, with -37.1%; and `Cc1ccc(N(CC(=O)N2CCCC2)S(C)(=O)=O)cc1C`, with 3%.
The value for `NC(Cc1ccc(Oc2ccc(O)cc2)cc1)C(=O)O` (stereo not shown) was 3.45%; that for `Cc1c(NC(=O)COc2cccc(Br)c2)c(=O)n(-c2ccccc2)n1C` was -27.9%.
The value for `CCOc1cc(C=O)ccc1OCC(N)=O` was 4.46%; that for `Cn1cnc2c(NCc3ccco3)ncnc21` was 4.65%.
As to `CC1CCCCN1S(=O)(=O)c1ccc2c(c1)CCN2C(=O)CCC(=O)O` (stereo not shown), the “hERG current change (%, negative = inhibition) at 10uM” value was 1.03%.
For the molecule `CN1CCN(C(=O)c2ccc(Cl)cc2)CC1`, the “hERG current change (%, negative = inhibition) at 10uM” value is recorded as 8.8%.
Then `O=S(N1CCc2ccccc21)C12CC3CC(CC(C3)C1)C2` (stereo not shown), with -6.09%.
On to `Cc1cc(NC(=O)CSc2nnc(-c3ccncc3)n2C)n(-c2ccccc2)n1`, for which the “hERG current change (%, negative = inhibition) at 10uM” value is -21.9%.
Then `CCCOP(=O)(c1ccc(N(C)C)cc1)C(O)c1ccc(Cl)cc1Cl` (stereo not shown), with -54.9%; and `CNS(=O)(=O)c1ccc(-c2ccc(C=C3C(=O)NC(=O)NC3=O)o2)cc1`, with -1.86%.
Then `O=C(CC1Sc2ccccc2NC1=O)OCC(=O)N1CCc2ccccc21` (stereo not shown), with -0.0853%; and `Cc1cc2ncn(C(=O)c3c(-c4c(Cl)cccc4Cl)noc3C)c2cc1C`, with 11.6%.
Consider `CC(=O)N1CCN(C(=O)CCc2nnc(CCCCc3ccccc3)o2)CC1`, for which the “hERG current change (%, negative = inhibition) at 10uM” value stood at 6.86%.
The value for `CCCCn1c(CCNC(=O)CCC)nc2ccccc21` was -7.83%.
Then `NNC(=O)C1CC1c1ccc(Cl)cc1` (stereo not shown), with 9.11%.
The value for `CC(=O)NC(Cc1c[nH]c2ccccc12)C(=O)N1CCc2ccccc2C1` (stereo not shown) was -2.21%; that for `C[C@@H](C(=O)NC1CCN(Cc2ccccc2)CC1)N1C(=O)N2CCc3c([nH]c4ccccc34)[C@@]2(C)C1=O` was -77.8%.
On to `Cc1ccc(C(=O)CCC(=O)O)cc1`, for which the “hERG current change (%, negative = inhibition) at 10uM” value is given as 7.54%.
The value for `CC1(C)CC(=O)C=C(C(=O)NC2CCCc3c2cnn3-c2cc(F)cc(F)c2)O1` (stereo not shown) was -2.03%.
For the molecule `CN(c1ccccc1C(=O)Nc1ccccc1-c1ccccc1)S(C)(=O)=O`, the “hERG current change (%, negative = inhibition) at 10uM” value worked out at 19.8%.
The value for `CCOC(=O)c1c(C)oc2c1c(C=NCCC(=O)O)c(O)c1ccccc12` was 20.5%.
The value for `Nc1nnc(SCC(=O)N2CCN(c3ccccc3)CC2)s1` was -0.188%; that for `Cc1ccc(CNc2cnn(C34CC5CC(CC(C5)C3)C4)c(=O)c2Cl)cc1` was -8.85%; that for `Cc1ccc(CN2CCC(c3cc(-c4ccc(Cl)cc4)n[nH]3)CC2)cc1` was -78.8%.
Then `CC(NC(=O)Nc1ccccc1C(F)(F)F)C1CCCO1` (stereo not shown), with 27%; and `CN(C)S(=O)(=O)N1CCN(C(=O)N(c2ccccc2)c2ccccc2)CC1`, with 10.3%.
In the case of `COCCOC(=O)C1=C(C)Nc2cc(=O)[nH]c(=O)n2C1c1cccc([N+](=O)[O-])c1` (stereo not shown), the “hERG current change (%, negative = inhibition) at 10uM” value is listed as 14.4%.
For `O=C(COC(=O)COc1cccc(C(F)(F)F)c1)NC1CCCC1`, the “hERG current change (%, negative = inhibition) at 10uM” value is 6.47%.
The value for `COc1ccccc1CNC(=O)COc1ccccc1C(=O)c1cnn(-c2ccccc2)c1` was -9.74%; that for `COCCn1c(SCC(=O)OCc2ccccc2)nc2c1c(=O)[nH]c(=O)n2C` was -25.6%.
